Test results as given in article PMC4336329 (PLoS ONE, 2015).
Hit rate of the full screen: of about 310,000 compounds, about 2,200 (0.71%) showed an effect of 50% or more. The effect is printed as a negative number. The list shows a part of the results.

target: human ether-à-go-go-related gene (hERG) potassium channel (human, UniProt Q12809); experiment: primary screen, population patch clamp on CHO cells stably expressing hERG
Sequence (Q12809 whole entry, looked up): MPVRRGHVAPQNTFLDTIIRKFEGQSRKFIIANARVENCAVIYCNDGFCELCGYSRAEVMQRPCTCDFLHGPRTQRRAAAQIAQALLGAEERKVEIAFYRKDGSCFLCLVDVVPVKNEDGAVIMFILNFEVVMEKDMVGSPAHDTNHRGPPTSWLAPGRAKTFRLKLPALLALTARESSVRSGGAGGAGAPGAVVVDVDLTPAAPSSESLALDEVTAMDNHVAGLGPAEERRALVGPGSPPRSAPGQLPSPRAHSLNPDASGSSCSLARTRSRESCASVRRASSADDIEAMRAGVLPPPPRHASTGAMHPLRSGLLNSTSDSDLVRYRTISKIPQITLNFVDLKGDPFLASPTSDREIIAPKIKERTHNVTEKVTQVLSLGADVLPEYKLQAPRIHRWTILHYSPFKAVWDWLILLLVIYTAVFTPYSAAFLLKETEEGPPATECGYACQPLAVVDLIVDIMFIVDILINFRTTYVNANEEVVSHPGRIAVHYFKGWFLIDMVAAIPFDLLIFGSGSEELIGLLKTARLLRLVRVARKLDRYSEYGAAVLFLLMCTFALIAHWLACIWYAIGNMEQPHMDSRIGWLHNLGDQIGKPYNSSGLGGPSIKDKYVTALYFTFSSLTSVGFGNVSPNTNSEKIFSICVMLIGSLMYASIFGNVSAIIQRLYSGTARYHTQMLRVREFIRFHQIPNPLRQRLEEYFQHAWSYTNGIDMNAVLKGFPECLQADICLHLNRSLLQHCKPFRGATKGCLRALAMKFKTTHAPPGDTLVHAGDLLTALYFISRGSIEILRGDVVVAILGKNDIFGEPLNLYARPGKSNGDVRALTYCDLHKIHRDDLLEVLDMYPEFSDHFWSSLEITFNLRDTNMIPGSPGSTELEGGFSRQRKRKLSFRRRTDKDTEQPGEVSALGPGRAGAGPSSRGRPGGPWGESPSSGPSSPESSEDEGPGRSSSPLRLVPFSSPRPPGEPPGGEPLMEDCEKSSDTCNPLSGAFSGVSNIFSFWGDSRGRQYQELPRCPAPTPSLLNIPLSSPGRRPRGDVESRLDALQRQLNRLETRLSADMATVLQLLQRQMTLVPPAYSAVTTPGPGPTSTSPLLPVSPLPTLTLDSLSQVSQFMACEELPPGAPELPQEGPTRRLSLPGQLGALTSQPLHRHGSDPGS

Row | SMILES | hERG current change (%, negative = inhibition) at 1uM
1 | c1ccc(C(c2ccccn2)c2ccccn2)cc1 | 5.64%
2 | O=C(COC(=O)c1cc([N+](=O)[O-])ccc1NCc1ccccc1)NCc1ccccc1Cl | 14.2%
3 | Cc1cc(N2CCN(c3ccc(C(F)(F)F)cc3[N+](=O)[O-])CC2)c2ccccc2n1 | -64.2%
4 | O=C(/C=C/c1ccc([N+](=O)[O-])cc1)NCc1cccs1 | 12.3%
5 | CSc1ccc(CCNS(=O)(=O)c2c(C)[nH]c(C)c2C(=O)N2CCCCC2)cc1 | 4.35%
6 | O=C(OCC(=O)N1CCCC1=O)c1ccc(O)cc1O | 10.2%
7 | COc1ccc(OC)c(N=C(C)C2=C(O)COC2=O)c1 | -4.71%
8 | NC(=O)c1ccccc1OCC(=O)NS(=O)(=O)c1ccccc1 | 10%
9 | COc1cccc(N2CC(=O)N(NC(=O)c3sc4nc(C)cc(C)c4c3N)CC2=O)c1 | 10.7%
10 | CC(C)(C)NC(=S)NCc1ccc2c(c1)OCO2 | 8.13%
11 | COc1ccc(S(=O)(=O)N2CCN(C(=O)CN3C(=O)NC(C)(C)C3=O)CC2)cc1 | 14%
12 | CCOC(=O)N1CCC(NC(=O)c2cc(C(=O)Nc3cccc(OC)c3)ccc2CO)CC1 | 14%
13 | O=C(COc1ccc2c(c1)oc(=O)c1ccccc12)NC(Cc1ccc(Cl)cc1)C(=O)O (centres unmarked) | 5.37%
14 | Nc1nonc1-n1nnc(C(=O)N/N=C/c2ccc(O)cc2)c1COc1ccc(F)cc1 | 19.1%
15 | O=C(CCNS(=O)(=O)c1cccc2nsnc12)NCc1ccco1 | 7.54%
16 | COC(=O)Nc1ccc(S(=O)(=O)N2CCCC(C(=O)N3CCN(C)CC3)C2)cc1 (centres unmarked) | 7.31%
17 | Cc1ccc(O)c(NC(=O)c2noc(C(C)C)c2[N+](=O)[O-])c1 | 10.7%
18 | NNC(=O)c1ccc(COc2ccccc2)cc1 | 4.41%
19 | COc1ccccc1C(=O)C1CCCN(Cc2cn[nH]c2C2CCCCC2)C1 (centres unmarked) | -6.1%
20 | COC(=O)Cc1[nH]n(-c2ccccc2)c(=O)c1C=Nc1ccc(C)cc1 | -7.21%
21 | COc1ccc(Cc2c([O-])[nH]c(=O)[nH]c2=O)c(OC)c1.[NH4+] | 8.48%
22 | COc1ccc(C(=O)N[C@H](C(=O)OCc2nc3ccsc3c(=O)[nH]2)C(C)C)cc1 | -1.98%
23 | O=C(COc1ccc(S(=O)(=O)N2CCOCC2)cc1)Nc1cccc([N+](=O)[O-])c1 | 9.62%
